# Measurements reported in PubChem BioAssay AID485294 (National Center for Advancing Translational Sciences (NCATS), 2010).
# The whole screen tested about 370,000 compounds, of which about 150 (0.041%) were called active. The shares of active, inactive and inconclusive entries below differ from those in the screen. Calls come from the whole dose curve; as a rule, active = well fitted inhibition curve with a large enough effect; inconclusive = small, poorly fitted or top-dose-only effect; inactive = flat fitted curve, though single readings scatter. Potencies of inconclusive entries are left out as doubtful fits.
# Biological target: Beta-lactamase (Escherichia coli (strain K12)) (UniProt P00811)
# Experiment: qHTS Inhibitors of AmpC Beta-Lactamase (assay with detergent); note: nearly all actives have a fitted effect of over 25% in size
# Details: AmpC hydrolysis of nitrocefin, absorbance 480 nm, 0.01% Triton; series mostly up to 114 µM
# Summary of the method: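 AmpC (5.3 nM in the dispensed reagent) in 20 mM phosphate pH 7.0 with 0.01% (detergent screen) or 0.0001% Triton X-100 was preincubated with compounds for 15 min at room temperature. Nitrocefin was then added from an 800 uM solution, and hydrolysis was followed at 480 nm.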
# Potency is the fitted concentration of half-maximal effect; tags give direction and shape of the fitted curve.
# Chain of UniProt P00811 (P00811 whole entry, looked up): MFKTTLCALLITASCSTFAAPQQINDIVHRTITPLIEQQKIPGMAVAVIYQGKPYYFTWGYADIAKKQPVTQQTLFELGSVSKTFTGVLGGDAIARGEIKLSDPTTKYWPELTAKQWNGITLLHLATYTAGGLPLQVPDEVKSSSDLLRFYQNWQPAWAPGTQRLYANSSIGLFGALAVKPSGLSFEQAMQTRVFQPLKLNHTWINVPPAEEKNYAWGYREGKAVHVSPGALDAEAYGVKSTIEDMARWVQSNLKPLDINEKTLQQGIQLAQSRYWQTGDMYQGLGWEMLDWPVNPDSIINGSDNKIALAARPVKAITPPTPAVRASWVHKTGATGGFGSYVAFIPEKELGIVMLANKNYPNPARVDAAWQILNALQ
row,SMILES,Potency
1,Cc1cccc(NS(=O)(=O)c2cccc(C(=O)N3CCCCCC3)c2)c1,"inconclusive [inhibitor, single point]"
2,CC(Cl)C(=O)c1ccc2c(c1)CCN2C(=O)C1CC1 (stereo unspecified),inactive
3,COc1cc2c(cc1NC(=O)CC1SC(N3CCCC3)=NC1=O)oc1ccccc12 (stereo unspecified),"inconclusive [inhibitor, full curve, poor fit]"
4,Cc1cccc(NC(=O)CSc2nc3c(c(=O)[nH]2)CN(Cc2ccc4c(c2)OCO4)CC3)c1C,inactive
5,CN(c1ccc(C(=O)NCCSCc2ccco2)cc1)S(C)(=O)=O,inactive
6,COc1ccc(C(CNC(=O)COc2ccc(F)cc2Cl)N2CCOCC2)cc1 (stereo unspecified),"inconclusive [inhibitor, partial curve, poor fit]"
7,Cc1ccc(-n2ncc3c(SCC(=O)Nc4cc(C)on4)ncnc32)c(C)c1,"inconclusive [inhibitor, full curve, poor fit]"
8,O=C(CSc1nnc(CN2CCCC2)n1-c1ccc(F)cc1)c1ccc2c(c1)OCO2,"inconclusive [inhibitor, full curve, poor fit]"
9,CC(C)(C)NC(=O)NC(=O)COC(=O)Cc1c(Cl)cccc1Cl,inactive
10,COc1ccc(C(CNC(=O)c2nn(-c3ccccc3)c(=O)c3ccccc23)N2CCOCC2)cc1 (stereo unspecified),inactive
11,CN(Cc1nc(-c2ccccc2)no1)C(=O)c1ccc2c(c1)OCO2,"inconclusive [inhibitor, full curve, poor fit]"
12,NS(=O)(=O)c1ccc(NS(=O)(=O)c2ccc(NC(=S)Nc3ccccc3)cc2)cc1,"inconclusive [inhibitor, partial curve]"
13,COc1cccc(N2CCN(C(=S)NCCc3ccccc3)CC2)c1,"inconclusive [inhibitor, full curve, poor fit]"
14,Cc1nnc(SCCn2c(N3CCCC(C)C3)nc3c2c(=O)[nH]c(=O)n3C)s1 (stereo unspecified),"inconclusive [inhibitor, full curve, poor fit]"
15,CC(C)NC(=O)C1CC(=O)N(c2ccc(F)c(Cl)c2)C1 (stereo unspecified),"inconclusive [inhibitor, full curve, poor fit]"
16,O=C(N/N=C/c1cccc(Br)c1)C1CC(=O)N(c2ccccc2)C1 (stereo unspecified),"inconclusive [inhibitor, partial curve, poor fit]"
17,Cc1ccc2[nH]cc(CCNC(=O)/C=C/c3ccco3)c2c1,inactive
18,CC(CC(=O)Nc1nncs1)c1ccccc1 (stereo unspecified),"inconclusive [inhibitor, partial curve, poor fit]"
19,CC(=O)Nc1nonc1NC(C)=O,"inconclusive [inhibitor, full curve, poor fit]"
20,Nc1nc(N)c(S(=O)(=O)c2ccccc2)c(Nc2ccc(Br)cc2)n1,inactive
21,CC(CN1C(C)CCCC1C)OC(=O)c1ccc(Cl)cc1 (stereo unspecified),"inconclusive [inhibitor, full curve, poor fit]"
22,CC1CC(C)CN(C(=O)CSc2nnc(CSc3ncccn3)n2C)C1 (stereo unspecified),"inconclusive [inhibitor, full curve, poor fit]"
23,C=CCSc1nnc2nc3c(nn12)c1cc(C)ccc1n3CC=C,"inconclusive [inhibitor, single point]"

row,SMILES,Potency
1,CCN(c1ccccc1)S(=O)(=O)c1ccc2c(c1)N(C(C)=O)CCO2,"inconclusive [inhibitor, single point]"
2,Cc1cnc(C(=O)Nc2ccc(F)c(F)c2)cn1,inactive
3,c1ccc(CSc2ncn(-c3ccccc3)n2)cc1,"inconclusive [inhibitor, partial curve, poor fit]"
4,CC1CN(c2cc(=O)n(-c3ccccc3)c(=O)[nH]2)CC(C)O1 (stereo unspecified),"inconclusive [inhibitor, full curve]"
5,CCOc1ccc(NC(=O)CN(C)S(=O)(=O)c2ccc3c(c2)c(=O)n(C)c(=O)n3C)cc1,inactive
6,O=C(CN1C(=O)NC2(CCCCCC2)C1=O)Nc1ccc(S(=O)(=O)N2CCOCC2)cc1,"inconclusive [inhibitor, full curve, poor fit]"
7,CCCCN(CC(=O)NC1CCCC1)C(=O)C(=O)Nc1ccc2c(c1)OCCO2,"inconclusive [inhibitor, full curve, poor fit]"
8,S=C(c1ccc(-c2ccc(Cl)c(Cl)c2)o1)N1CCOCC1,inactive
9,Cc1nc(=O)c(-c2ccccc2)c(C)n1-c1ccccc1C(=O)O,"inconclusive [inhibitor, full curve, poor fit]"
10,O=C(Nc1ccc(Cl)cc1)N(Cc1nnc2n1CCCCC2)c1ccccc1,"inconclusive [inhibitor, full curve, poor fit]"
11,Cc1ccc(C)c(NC(=S)Nc2ncccc2C)c1,inactive
12,Cc1cc(-c2ccc(Cl)cc2)oc(=O)c1NC(=O)c1ccccc1,"inconclusive [inhibitor, partial curve, poor fit]"
13,COc1ccc(-c2n[nH]c(=S)n2N)c(OC)c1,inactive
14,Cc1ccc(S(=O)(=O)NC(=O)Nc2ccc(Cl)cn2)cc1,inactive
15,CC1CCN(CCCCOc2ccc(Cl)cc2)CC1,"inconclusive [inhibitor, partial curve, poor fit]"
16,COc1cccc(C(=O)Nc2ccc(C)cc2)c1,inactive
17,COc1cccc(CN(C)CC(=O)Nc2cc3oc4ccccc4c3cc2OC)c1,inactive
18,COc1ccccc1C(c1nnnn1C(C)(C)C)N1CCN(C(=O)c2ccco2)CC1 (stereo unspecified),inactive
19,O=c1[nH][nH]c(C(F)(F)F)c1C=NCc1cccs1,"inconclusive [inhibitor, partial curve]"
20,Cc1nnc(NC(=O)c2cccc(S(=O)(=O)N3CC(c4ccccc4)CC3=O)c2)s1 (stereo unspecified),"inconclusive [inhibitor, partial curve, poor fit]"
21,O=C(NC(Cc1ccc(O)cc1)C(=O)O)c1ccc2c(c1)OCO2 (stereo unspecified),inactive
22,CCn1c(NN=O)nc2ccccc21,inactive
23,O=C(CS(=O)(=O)c1ccc(F)cc1)Nc1nnc(-c2cccs2)o1,"inconclusive [inhibitor, full curve]"
